Read-outs that look alike come from different tables or passages of the source. Entries with a single value are a further part of the results.
| Structure (SMILES) | melting point (free base) [°C] | melting point (hydrochloride salt (1.2 eq HCl)) [°C] | melting point (dihydrochloride dihydrate salt) [°C] |
| --- | --- | --- | --- |
| Cc1nc(CN2CCc3sc(Nc4ncc(F)cn4)nc3-c3cn[nH]c32)no1 [Compound 1-138, N-(5-Fluoropyrimidin-2-yl)-6-((5-methyl-1,2,4-oxadiazol-3-yl)methyl)-4,5,6,8-tetrahydropyrazolo[3,4-b]thiazolo[4,5-d]azepin-2-amine] | 245 | > 320 | – |
| Fc1cnc(Nc2nc3c(s2)CCN(CCCN2CCOCC2)c2[nH]ncc2-3)nc1 [Compound 1-140, N-(5-Fluoropyrimidin-2-yl)-6-(3-morpholinopropyl)-4,5,6,8-tetrahydropyrazolo[3,4-b]thiazolo[4,5-d]azepin-2-amine] | 232 | – | 257 to 259 |

Reference: patent publication US20140349994A1, “Novel 2-Amino-4,5,6,8-Tetrahydropyrazolo[3,4-b]Thiazolo [4,5-d]Azepine Derivatives and Their Use as Allosteric Modulators of Metabotropic Glutamate Receptors” (Addex Pharma S.A., priority 2012, published 2014)
